Measured values as given in PubChem BioAssay AID504339 (National Center for Advancing Translational Sciences (NCATS), 2011).
The whole screen tested about 390,000 compounds, of which about 17,000 (4.4%) were called active. Inconclusive means that the source gave no clear call. Such entries were picked first, then a sample of the others. Calls come from the whole dose curve; as a rule, active = well fitted inhibition curve with a large enough effect; inconclusive = small, poorly fitted or top-dose-only effect; inactive = no such curve, though single readings can be large or run the other way. A potency beside an inconclusive call is a rough fit, not a confirmed value.

biological target: Lysine-specific demethylase 4A (Homo sapiens) (UniProt O75164); experiment: qHTS Assay for Inhibitors of JMJD2A-Tudor Domain; details: AlphaScreen JMJD2A-Tudor / H3K4me3 peptide binding; activity change, negative = inhibition: at 114 µM (top of the series); note: nearly all actives have a fitted effect of over 50% in size
UniProt O75164, sequence (O75164 whole entry, looked up, the tested form may be a part): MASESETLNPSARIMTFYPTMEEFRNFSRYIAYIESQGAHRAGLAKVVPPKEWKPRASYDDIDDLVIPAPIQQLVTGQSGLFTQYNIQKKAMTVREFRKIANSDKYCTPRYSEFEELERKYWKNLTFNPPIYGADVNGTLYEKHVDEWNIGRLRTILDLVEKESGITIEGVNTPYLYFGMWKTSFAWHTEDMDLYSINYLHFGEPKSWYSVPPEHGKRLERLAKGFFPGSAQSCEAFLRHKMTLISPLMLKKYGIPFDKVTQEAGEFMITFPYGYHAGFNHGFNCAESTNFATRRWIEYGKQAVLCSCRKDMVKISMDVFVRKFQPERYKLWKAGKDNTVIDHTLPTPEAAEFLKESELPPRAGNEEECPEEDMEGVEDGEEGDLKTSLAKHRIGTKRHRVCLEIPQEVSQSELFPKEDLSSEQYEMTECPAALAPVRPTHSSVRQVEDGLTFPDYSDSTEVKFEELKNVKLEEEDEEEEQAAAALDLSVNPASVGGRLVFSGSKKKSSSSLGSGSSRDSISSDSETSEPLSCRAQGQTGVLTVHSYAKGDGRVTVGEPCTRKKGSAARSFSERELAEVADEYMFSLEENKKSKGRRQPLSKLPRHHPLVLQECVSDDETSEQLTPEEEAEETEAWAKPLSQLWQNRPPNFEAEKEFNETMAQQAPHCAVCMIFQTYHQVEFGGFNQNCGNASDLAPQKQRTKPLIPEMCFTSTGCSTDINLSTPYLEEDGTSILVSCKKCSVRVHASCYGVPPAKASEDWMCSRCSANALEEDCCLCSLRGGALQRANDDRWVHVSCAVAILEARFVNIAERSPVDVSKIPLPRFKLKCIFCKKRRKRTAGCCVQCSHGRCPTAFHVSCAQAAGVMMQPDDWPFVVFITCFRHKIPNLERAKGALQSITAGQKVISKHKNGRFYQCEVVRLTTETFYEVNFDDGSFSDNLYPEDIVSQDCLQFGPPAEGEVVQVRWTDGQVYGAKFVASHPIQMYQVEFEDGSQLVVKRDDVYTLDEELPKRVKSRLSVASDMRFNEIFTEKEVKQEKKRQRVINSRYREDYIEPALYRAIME
% is set by controls: 0 for no effect and ±100 for the full control effect; potency is the fitted concentration of half-maximal effect; tags give direction and shape of the fitted curve.

| SMILES | Potency | activity change, negative = inhibition |
| --- | --- | --- |
| NC(=O)c1ccc(NC(=O)COC(=O)c2cc3c(s2)CCC3)cc1 | inconclusive: 79.4 µM [inhibitor, partial curve] |  |
| COc1ccc(N2CCN(CC(O)COc3ccc(C(C)C)c(C)c3)CC2)cc1 (stereo not drawn) | inconclusive: 20 µM [inhibitor, full curve, poor fit] |  |
| Cc1ccc(SCCC(=O)OC(C(=O)NC(N)=O)C(C)C)cc1 (stereo not drawn) | active: 11.2 µM |  |
| O=C(Nc1ccc(N2CCCC2)cc1)c1cccc(F)c1 | active: 50.1 µM |  |
| COc1ccc(N=Nc2nc3cc(Br)c(Br)cc3n2C)c(OC)c1 | active: 31.6 µM |  |
| COc1ccc(N2Cc3ccccc3C2=NC(=O)c2cccc([N+](=O)[O-])c2)cc1 |  | inactive: -21.6% |
| Cc1cc(Cl)cc(Cl)c1OCCOCCN(C)C | active: 6.31 µM |  |
| CC(C)=CCC/C(C)=C/CNC(=O)C[C@H]1C[C@H](C(=O)N2CCOCC2)[C@@]2(C)c3[nH]c4ccc(Cl)cc4c3CCN2C1=O | inconclusive: 79.4 µM [inhibitor, partial curve] |  |
| CC(NC(=O)c1ccc(N2CCCC2)c([N+](=O)[O-])c1)c1ccc(S(N)(=O)=O)cc1 (stereo not drawn) | inconclusive: 70.8 µM [inhibitor, partial curve] |  |
| O=c1[nH]c(=O)c2[nH]c(=S)n(-c3ccccc3)c2[nH]1 | active: 39.8 µM |  |
| Cc1nn(C)cc1CN(C)C(=O)c1cc(COc2ccc(F)cc2F)on1 |  | inactive: -7.59% |
| CCOc1ccccc1NC(=O)NCCC1=CCCCC1 |  | inactive: -9.03% |
| CCCOc1ccc(N2C(=O)CC(NCCNc3ccc([N+](=O)[O-])cn3)C2=O)cc1 (stereo not drawn) |  | inactive: -18.4% |
| Fc1ccc(COc2ccccc2CNCc2ccncc2)cc1 |  | inactive: -7.8% |
| CC(=O)NC1CCC(C(=O)O)(c2ccccc2)C1 (stereo not drawn) |  | inactive: -1.27% |
| O=C(NCCc1ccccc1)NC1CCCCC1 |  | inactive: 0% |
| O=C(CN(c1ccc(Cl)cc1)S(=O)(=O)c1ccccc1)N/N=C/c1ccco1 | inconclusive: 50.1 µM [inhibitor, partial curve] |  |
| CCOCCCNC(=O)c1[nH]c2cc(OC)ccc2c1Sc1ccccc1 | inconclusive: 20 µM [inhibitor, full curve, poor fit] |  |
| N#CC1=C(N)Oc2ccc3ccc(O)cc3c2C1c1ccsc1 (stereo not drawn) | inconclusive: 56.2 µM [inhibitor, partial curve] |  |
| COc1ccc(OC)c(-c2csc(NC(=O)CSCc3c(C)noc3C)n2)c1 | inconclusive: 56.2 µM [inhibitor, partial curve] |  |
| C=C(C)CNC(=S)Nc1sc2c(c1C(=O)OCC)CC(C)(C)OC2 | inconclusive: 31.6 µM [inhibitor, single point] |  |
| CN=C1S/C(=C\c2ccc(N3CCCC3)c(F)c2)C(=O)N1C |  | inactive: -11.1% |
| CCO/C(C)=C1\N=C(c2ccc(Cl)cc2)OC1=O |  | inactive: -18.9% |
| O=c1c2c([N+](=O)[O-])cc([N+](=O)[O-])cc2sn1Cc1ccccc1 | active: 4.47 µM |  |
| COc1ccc(NC(=O)CSc2nnc(C)n2N)cc1S(=O)(=O)N1CCCCC1 |  | inactive: -0.327% |

| SMILES | Potency | activity change, negative = inhibition |
| --- | --- | --- |
| O=C(OCC(=O)N1c2ccccc2Sc2ccccc21)C1CC(=O)N(Cc2ccco2)C1 (stereo not drawn) | inconclusive: 56.2 µM [inhibitor, partial curve] |  |
| Clc1ccc(C2=CSC3=NCCN23)cc1Cl | inconclusive: 79.4 µM [inhibitor, single point] |  |
| COC(=O)Cc1c(C)[nH]n(-c2cc(Cl)cc(Cl)c2)c1=O |  | inactive: -13.7% |
| CCCCN(CC)CCCNC(=O)C1CCN(c2nc3ccc(CC)cc3s2)CC1 |  | inactive: -16.4% |
| CN(C)S(=O)(=O)c1cc(NC(=O)CNCCN2CCOCC2)ccc1Cl | active: 28.2 µM |  |
| COc1ccc(C2/C=C\CC(NC(=O)OCC3c4ccccc4-c4ccccc43)CC(=O)N2Cc2ccccc2F)cc1 (stereo not drawn) | inconclusive: 35.5 µM [inhibitor, partial curve] |  |
| O=C(Nc1ccc2nn(-c3ccccc3)nc2c1)c1ccc2c(c1)OCO2 | inconclusive: 20 µM [inhibitor, full curve] |  |
| CNCC(O)c1ccc(O)c(O)c1 (stereo not drawn) | inconclusive: 15.8 µM [inhibitor, full curve, poor fit] |  |
| Cc1noc(C)c1NC(=O)N(C)C[C@H]1Oc2c(NC(=O)C3CC3)cccc2C(=O)N([C@H](C)CO)C[C@@H]1C |  | inactive: -12.6% |
| Cc1nnc(SCC(=O)NCc2ccc(N(C)C)cc2)c2nn(-c3ccccc3)c(C)c12 | inconclusive: 56.2 µM [inhibitor, partial curve] |  |
| COc1ccc(OC)c2sc(N(Cc3cccnc3)C(=O)c3ccc(C(C)=O)cc3)nc12 | inconclusive: 50.1 µM [inhibitor, partial curve] |  |
| O=C1NC(c2cc(Cl)cc([N+](=O)[O-])c2O)Nc2ccccc21 (stereo not drawn) | inconclusive: 56.2 µM [inhibitor, partial curve] |  |
| O=C(c1ccc(Cl)c(S(=O)(=O)N2CCOCC2)c1)N(c1ccccn1)C1CCCCC1 |  | inactive: -31.9% |
| COc1ccc(S(=O)(=O)N2CCOCC2)cc1NC(=O)c1cccs1 |  | inactive: 5.37% |
| CN(CCCCOc1ccc(F)cc1)Cc1ccccc1 | active: 22.4 µM |  |
| CN1CCN(c2ccc(Cl)cc2NC(=O)CC2OC(=O)c3ccccc32)CC1 (stereo not drawn) | inconclusive: 39.8 µM [inhibitor, single point] |  |
| c1cc(CN2CCCCC2)cc(OCCCNc2nc3ccccc3s2)c1 | inconclusive: 56.2 µM [inhibitor, partial curve] |  |
| CCOc1cc(/C=C(\C#N)C(=O)Nc2ccccc2C)ccc1OCc1cc(=O)n2nc(CC)sc2n1 | inconclusive: 22.4 µM [inhibitor, partial curve] |  |
| Cc1ccc(C)c(N2CCN(C(=O)CCn3c(=O)[nH]c4ccccc4c3=O)CC2)c1 | inconclusive: 89.1 µM [inhibitor, single point] |  |
| COC(=O)CC(CC(=O)OC)n1cccc1 | inconclusive: 44.7 µM [inhibitor, partial curve] |  |
| COc1ccccc1C1CC(c2ccco2)=NN1S(C)(=O)=O (stereo not drawn) | active: 50.1 µM |  |
| COc1ccc(S(=O)(=O)N2CCOCC2)cc1 |  | inactive: -2.84% |
| Cc1cc(NC(=O)c2ccco2)ccc1-n1cnnn1 | inconclusive: 39.8 µM [inhibitor, single point] |  |
| COc1ccc(-c2oc3ncn4nc(-c5ccccc5Cl)nc4c3c2-c2ccc(OC)cc2)cc1 |  | inactive: -6.54% |
| CCCCCC(=O)NNC1=NCC(Cc2cccc(Cl)c2)S1 (stereo not drawn) | inconclusive: 70.8 µM [inhibitor, partial curve, poor fit] |  |

| SMILES | Potency | activity change, negative = inhibition |
| --- | --- | --- |
| CC1(C)CC(=O)c2cc(-c3nc(-c4ccc(Cl)cc4)cs3)c(=O)n(-c3ccc(F)cc3)c2C1 |  | inactive: -9.56% |
| CCOC(=O)c1c(-c2ccc(C)o2)csc1NC(=S)NC(=O)c1ccc(F)cc1 |  | inactive: -23.9% |
| COc1ccc(/C=N/NC(=O)c2cc(C34CC5CC(CC(C5)C3)C4)[nH]n2)cc1OC | inconclusive: 12.6 µM [inhibitor, full curve, poor fit] |  |
| CN1/C(=C\C(=S)NC(=O)c2ccccc2Cl)C(C)(C)c2ccccc21 | active: 25.1 µM |  |
| CCOc1cc(/C=N/Nc2cccc(C(=O)O)c2)ccc1OC(=O)c1ccccc1 | inconclusive: 50.1 µM [inhibitor, partial curve] |  |
| O=C(CCC1N=C2c3ccccc3N=C(SCc3ccccc3Cl)N2C1=O)N1CCN(c2ccccc2)CC1 (stereo not drawn) | inconclusive: 2.24 µM [inhibitor, full curve] |  |
| C/C(=N\Nc1ccc(C(=O)O)cc1)c1ccc(Cl)s1 | inconclusive: 39.8 µM [inhibitor, partial curve, poor fit] |  |
| CC(C)Oc1ccc(CN2CCC(n3nccc3NC(=O)c3cccnc3)CC2)cc1 | inconclusive: 63.1 µM [inhibitor, partial curve] |  |
| C=CCNC(=O)c1sc(=S)n(-c2ccc(C(=O)OCC)cc2)c1N | inconclusive: 56.2 µM [inhibitor, partial curve] |  |
| CCOC(=O)Cc1cc(=O)[nH]c(/N=C(\N)Nc2ccc(OC)cc2)n1 | inconclusive: 20 µM [inhibitor, partial curve] |  |
| O=C(COC(=O)/C(=C/c1cccs1)c1cccs1)NCc1ccccc1Cl | inconclusive: 31.6 µM [inhibitor, full curve, poor fit] |  |
| CC(C)C[C@@H](CO)N1CCN(C)CCC1=O |  | inactive: -14.9% |
| Cc1nnc(SCc2cc(=O)[nH]c(=S)[nH]2)s1 | inconclusive: 39.8 µM [inhibitor, single point] |  |
| Cc1ccc(Cl)cc1NC(=O)Cn1cc2c(n1)CCCCC2 |  | inactive: -5.7% |
| Cc1cc(OCC(=O)Nc2cc(-c3nn4c(C)nnc4s3)ccc2C)ccc1Cl | active: 56.2 µM |  |
| COc1cc(/C=C2\SC(=S)N(N(C)c3ccccc3)C2=O)ccc1O | inconclusive: 89.1 µM [inhibitor, partial curve] |  |
| Cc1ccc(NC(=S)NCCc2ccccc2)c(C)c1 |  | inactive: -14.1% |
| Cc1ccc(-c2nnc(N3CCN(c4ccccn4)CC3)c3ccccc23)cc1 | inconclusive: 31.6 µM [inhibitor, partial curve] |  |
| Cc1cccc(C)c1OCCn1c(C2CC(=O)N(Cc3ccc(F)cc3)C2)nc2ccccc21 (stereo not drawn) | inconclusive: 15.8 µM [inhibitor, full curve, poor fit] |  |
| O=C1N=c2ccccc2=C1c1sc(=S)n(NC(=O)c2ccccc2)c1O |  | inactive: -17.2% |
| CCOC(=O)C1CCCN(C(=O)CCNS(=O)(=O)c2ccc(Br)cc2)C1 (stereo not drawn) |  | inactive: -12.8% |
| O=C1c2ccccc2C(=O)N1/N=C/c1ccc(O)c(O)c1O | active: 22.4 µM |  |
| Cc1ccc2c(c1)c1c3n2CCCN(Cc2ccccc2)C3CCC1 (stereo not drawn) | inconclusive: 50.1 µM [inhibitor, partial curve, poor fit] |  |
